From the supplement of paper PMC11417369
The other results are listed elsewhere or left out.

test system: PfAP2-HC AP2 domain (GST-tagged); experiment: gcPBM binding intensity (ln(normalized median fluorescence intensity)); higher = stronger DNA binding
In short: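 The highest Masliner-normalised natural-log median intensity across replicate spots of either probe orientation is reported as binding intensity. GST-tagged P. falciparum DNA-binding domains expressed in E. coli were applied for 1 h to an Agilent 4 × 180k array of primer-extended double-stranded 36-bp intergenic genomic probes plus negative controls, and bound protein was detected with Alexa488 anti-GST antibody and scanned at 488 nm.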

Sequence	gcPBM binding intensity (ln)
AAAACATACCTATATACACACATATAAATATAAATA [CACACA_site6956]	10.1
TCATGTTTTACAAAAACACACAAATGAATATAAACA [CACACA_site4775]	9.57
TATATACATAGACACCCACACACAAAAAAAAAAAAA [CACACA_site8186]	10.2
AATAAATAAAAATTATGTACATATATAAAAAATACA [XGTACX_site8581]	9.82
TCGAATTTGGAAAGAAGTACATGAAGCCAACATATG [XGTACX_site5222]	9.61
TTTCAAACTGTTCTCACACACGAAATTAGAAATGAA [CACACA_site4509]	9.74
AAAACAAAATAGGGAACACACACATGTCAATATATA [CACACA_site8834]	10.5
TTTTTTTTTTTTTGGTTCACACTGAAAAGAGAGATA [GTGCAC_negctrl_site439]	9.21
TTTTGTTATTTTGAAGTGCACTTTCCACTTAATATA	9.74
CAATCATGGTTTTACACACACATGCATGTGAAAATT [CACACA_site4870]	9.8
AAAAGTGATGAGACAAGTACTAACATATTATTATTA [XGTACX_site1533]	9.75
TTTTCTGTATAAACTTGTACATATATTTCCTTGTTT [XGTACX_site5745]	9.8
AAATATATATGTATATGTACTTATTTATTTAAAAGG [XGTACX_site4093]	9.6
TTTATTATATATAAAAGTACACATTGTAAGGAAACA [XGTACX_site8560]	9.78
ATACCTATTTGATGAGTGCATTATCCAATATATGTA	9.59
ATGTTTTACAAAAACACACAAATGAATATAAACATA [CACACA_site6667]	9.72
AAATAAAATATCAATTAAAACAGAATTGAATTTTTA [CACACA_negctrl_site181]	9.6
ATATGTTCTACAAAAAAGATGTCGATTTATTTTCTT [CACACA_negctrl_site1179]	9.55
ACACATATGCATATATGTACATAATATATTAAACTT [XGTACX_site5975]	9.86
TAAAAAATAAATATATGTACGCAATAAATGTGTTAA [XGTACX_site4043]	9.69
AAAAAAAAAAGACACACACACACACTAATACATACA [CACACA_site6473]	11.4
GCAAATGTGAAAACGTGTACACATTTTATTTAATTT [XGTACX_site8000]	9.65
ATAATATATGTATATCCACACACATATATATATATA [CACACA_site8471]	10.1

Sequence	gcPBM binding intensity (ln)
ATTTAAGATTTAATCACACACATATATATTATATAC [CACACA_site2907]	9.99
AAATGTAGATATTATCGTACACATATATTTATATAT [XGTACX_site6326]	9.6
TATTTGTAAATCGATACACACATATATATTAATATA [CACACA_site196]	9.71
AAAAAAAAAAAAAAATGTACAAATAGTAGTTACAGA [XGTACX_site2531]	9.69
AACATGTTAAAATAAACACACAGCTAAGGTTTTTTT [CACACA_site157]	9.72
TATATAAATATATATGTACACACATATACATGTTGA [CACACA_site9022]	9.8
ATAATATCTTTATGTGTGCACATATATATATATATA	10.2
TTGTTTATTTTTTATTACTATAAAGATGTTATATAT [CACACA_negctrl_site1506]	9.59
TAAATAATTTATAAGTGTACTATTATTGCACGAATA [XGTACX_site7715]	9.46
AAAAAAAACAGACACACACACATAAATATATATAAA [CACACA_site148]	10.4
ATGATTTTTTCTGTATGTACATAAAAATAAAATTCT [XGTACX_site5698]	9.44
CATTAGGTCTTTTGTACATGCAAGTGTGTGCGTAAA [TGCATGCA_site255]	9.93
TTTTTTTTTTTTTTTGCACACTTGATTTGAGCTTAT [CACACA_site4042]	9.56
AAAATAAAAATACACATTTTTTTTTTTTTTTTTTTT [TGCATGCA_negctrl_site515]	9.54
TTTTTTTTTGTTTACACACCCAAATCACATACATAT [CACACA_site4052]	9.94
TTACAAAAATGTGGTTGTACACAAACAAAAAAAATA [XGTACX_site8506]	9.82
GAAAATAGCTAAAATACACACAATTAAAAGTTATTA [CACACA_site7614]	10.2
TATAAATAGATATATACACACATGAAAATAAATAAA [CACACA_site7228]	10.1
TTTTCCTTTTTGGAATGTACACATATATATTAAATG [XGTACX_site4700]	9.51
AAATATAATATATGCACACATACATACATATATATA [CACACA_site104]	9.84
AAGAATAATAACAAATGTACTTATATAAAGTATTAT [XGTACX_site2336]	9.74
TAATTAAATATTTTCCTACAATTAATAAGAAAAGGA [XGTACX_negctrl_site565]	9.27
TATTAAGAAGAAAATTCACACATTTGTACCTCTCTT [CACACA_site4822]	9.68

Sequence	gcPBM binding intensity (ln)
CAGCTCTTAAAAATTACACACATATACGCATATATA [CACACA_site3267]	9.83
TTCTTTAAAATAAATTGTACTAACATATATATATAT [XGTACX_site6045]	9.66
TATAATATAATATATGCACACAAATATGTATATATG [CACACA_site8664]	9.78
AACTATATATAACTAGTGCAAAGACAATATTTTAAA	9.79
AAAATTTAATATAATGCACACATAAAAAAAAAAAAT [CACACA_site8425]	9.89
CCATTTATTATTTGGGGTACATTTAATTAATATTTT [XGTACX_site5940]	9.72
CTTTATTATAAGATTACACACATGTGTTATAATTTA [CACACA_site3169]	9.79
TTGACCTTAAGAAGGTTGCACTAATCATTCAAAGTT	9.45
ATAGGCACTTTTTGCACACGTATGAATAACAAAATA [CACACA_site5069]	10
TGAAAATTTTAATGAGGAAATAAAATAAATATAATA [GTGCAC_negctrl_site159]	9.58
TTTATTAATAGACACACACACACACGCAAAATAAAA [CACACA_site6255]	11.2
CCAAAGGGGGTATACTGTACATATAGTGGTTATATA [XGTACX_site1515]	9.73
ATTTAAGGGGTGTATGCACACGACTATTCCGTATGA [CACACA_site4738]	9.94
AATATTTTAAGGCACACACACAAAAAAAAAAAAAAA [CACACA_site2890]	10.7
TAATTTAGTATCTTTACATGCGGGCATTATGTCATA [TGCATGCA_site167]	9.57
ACTTGTTTTCAATGTAAAATACAATTTTCATTTATT [CACACA_negctrl_site435]	9.7
AATGAAAAATGTATCGTTAAAGGGTATCTTAAGGAT [XGTACX_negctrl_site222]	9.7
CCAAAGAAATATAATACACACAAGAATATATTGGAT [CACACA_site6018]	9.86
AAGTATTACAACCACACACACACCTATATATTATAT [CACACA_site4158]	10.6
AATTTAATATAATGCACACATAAAAAAAAAAAAAAA [CACACA_site123]	9.74
TTTTAAACAAAAAATTGTACAATTAGTGTATAATCC [XGTACX_site778]	9.69
AAAGGAAATTAAAATTGATTACATATATAAAAAAAC [XGTACX_negctrl_site196]	9.72
TATAAAAATGTGTATGTACACACTTTATTTTTAATA [CACACA_site2532]	9.68

Sequence	gcPBM binding intensity (ln)
TATTTTTCCCTATGCACACACACCGTATATATAATA [CACACA_site4758]	10.4
AGTATTTCCATATGTACATGCAAAAGGAAAGATATA [TGCATGCA_site850]	9.7
AAATATAAAAATAGCACACATATATACATATATATA [CACACA_site56]	9.88
TGTCCAATTTTTTATCGTACATAATATATAAATAAA [XGTACX_site1705]	9.36
AGAAACGTAAGTTATACACACATGTCAAAAGAAAAA [CACACA_site312]	9.91
AAATTAAAATATATATGTACATATATATATATATAT [XGTACX_site7844]	9.62
GAGCTTTGGATGAAAGCATGCGATGAATGGATAAAA [TGCATGCA_site786]	9.47
AACACAAATAAGTATTTGGATTATATTACATTTATA [CACACA_negctrl_site465]	9.57
TAAATAGGAAAACCTATACACACTTTAAAAAAAATA [CACACA_site1621]	9.63
TAAATTAAAAAAAAAAACAAAAAAAAAGCAACAAAA [CACACA_negctrl_site1318]	9.67
ATAAAAATAAATAAATGTACATATATATATATATAT [XGTACX_site1277]	9.58
ATTTATTTCAATAAACTTCTTTTCTTTAACAATTAC [CACACA_negctrl_site1222]	9.51
CTGTAAAATGTGATGGTGCATATTAATTTAGTTGTA	9.87
TTTGAATTTTTTAACACACACATGTCTGGATATATA [CACACA_site1645]	10.1
GAAAAAAAAAAAAAAAGTACATGTCATAAATTGTAT [XGTACX_site1461]	9.82
TTTTCCTTAACACACGTTTATATAAAAAATTAAAAT [XGTACX_negctrl_site115]	9.37
ATCCATCTTTTATATAGTACTTTATAATATATATAT [XGTACX_site8064]	9.82
CAATGTTAATATAATACACACAATATGTATTTGTCT [CACACA_site1162]	9.91
TTGTTAATATATATATGTACTTATTTATTTATTTAT [XGTACX_site2274]	9.65
TTATAGTATTTATAATGTACAAATATATTTTATTTT [XGTACX_site5015]	9.62
